Over roughly 110,000 compounds, “z-score” has its median near -0.1; the highest 2% begin near 2. The list shows a part of the results. The source made the active and inactive calls.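 Rule for the calls: active = z-score in the third read window above 3 or below -3; inactive = the rest.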
target: Metabotropic glutamate receptor 8 (Rattus norvegicus) (UniProt P70579); test: rat mGluR8 modulators via GIRK flux, primary screen, cell-based, thallium flux, HTS (AID 488969); conditions: HEK293 rat mGluR8, GIRK (G protein-gated inwardly rectifying potassium channel) thallium flux, FluoZin2; at 10 µM; stronger effect = higher value; submaximal glutamate (EC20) added with thallium
Chain of UniProt P70579 (P70579 whole entry, looked up): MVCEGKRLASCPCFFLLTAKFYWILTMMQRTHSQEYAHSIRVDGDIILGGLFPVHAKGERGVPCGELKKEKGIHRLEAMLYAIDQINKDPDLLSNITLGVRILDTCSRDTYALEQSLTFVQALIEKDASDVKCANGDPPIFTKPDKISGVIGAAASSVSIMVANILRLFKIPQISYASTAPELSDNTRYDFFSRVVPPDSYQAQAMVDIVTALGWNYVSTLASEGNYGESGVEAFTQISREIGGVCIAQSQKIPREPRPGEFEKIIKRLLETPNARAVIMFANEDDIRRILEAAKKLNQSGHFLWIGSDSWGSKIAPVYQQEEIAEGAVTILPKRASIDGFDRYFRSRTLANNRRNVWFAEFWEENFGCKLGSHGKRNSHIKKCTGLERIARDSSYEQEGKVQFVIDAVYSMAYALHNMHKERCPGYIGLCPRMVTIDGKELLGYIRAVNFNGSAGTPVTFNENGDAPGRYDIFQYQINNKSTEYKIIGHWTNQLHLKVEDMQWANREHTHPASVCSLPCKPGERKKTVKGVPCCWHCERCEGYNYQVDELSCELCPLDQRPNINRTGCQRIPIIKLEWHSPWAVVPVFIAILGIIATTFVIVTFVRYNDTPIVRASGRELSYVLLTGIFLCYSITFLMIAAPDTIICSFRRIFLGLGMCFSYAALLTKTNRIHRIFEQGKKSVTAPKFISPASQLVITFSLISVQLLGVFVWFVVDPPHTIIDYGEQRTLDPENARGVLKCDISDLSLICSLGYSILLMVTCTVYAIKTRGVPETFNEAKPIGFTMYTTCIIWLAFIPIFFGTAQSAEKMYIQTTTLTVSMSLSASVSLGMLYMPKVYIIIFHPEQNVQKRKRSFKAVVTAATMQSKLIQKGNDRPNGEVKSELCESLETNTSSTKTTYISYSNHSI

SMILES	z-score
O=C(NCCCN1CCOCC1)c1ccc(Cl)c(S(=O)(=O)N2CCCCCC2)c1	0.0312
O=C(CN(CC1CCCO1)C(=O)CCC(=O)Nc1ccccn1)NCC1CCCO1 (stereo not given)	-0.00608
CNC(=O)NC(=O)CSc1ncc(C(F)(F)F)cc1Cl	1.33
O=C(NC1CCCCC1)C(c1cccnc1)N(C(=O)CCl)c1ccccc1Cl (stereo not given)	-0.00621
Cc1c(Cl)cccc1-n1c(SCC(=O)NCc2cccs2)nnc1-c1ccncc1	0.0133
CCc1nnc(NS(=O)(=O)c2ccc(NC(=S)NC(=O)c3ccc(F)cc3)cc2)s1	0.102
CC(C)c1noc2ncc(C(=O)c3cc(Cl)cc(Cl)c3O)cc12	0.113
O=C(CCC1CCCC1)Nc1nnc(-c2ccc3c(c2)OCO3)s1	0.291
Cc1ccccc1C(=O)NNC(=O)CSc1nnc(C)n1-c1ccccc1	0.0371
Cc1cccc(OCCOc2ccccc2C=C(C#N)C#N)c1	-0.472
C=CCn1c(SCC)nc(O)cc1=O	-0.0583
CCCCCCn1c(CN2CCN(Cc3ccccc3)CC2)nc2c1c(=O)n(C)c(=O)n2C	0.12
CCOC(=O)c1ccc(N2C(=O)C3C(/C=C/c4ccccc4)OC4(C(=O)c5ccccc5C4=O)C3C2=O)cc1 (stereo not given)	-0.217
Cn1c(Cc2ccccc2)nnc1SCCC(=O)Nc1ccccc1	-0.162
Cc1ccc(S(=O)(=O)N/N=C/c2ccc(OS(=O)(=O)c3ccc(C)c([N+](=O)[O-])c3)cc2)cc1	0.202
Cc1ccc(C(=O)Nc2c(C(=O)NCc3ccco3)cnn2-c2ccccc2)cc1	-0.385
CC(=O)Nc1c(-c2ccc(F)cc2)nc2ccccn12	2.25
COc1ccc(C)cc1S(=O)(=O)N(C)CC(=O)NC1CC1	0.411
COc1ccc(C(OC(=O)c2cccs2)C(=O)NCC2CCCO2)cc1 (stereo not given)	active: 8.22
CCOc1cc(-c2c(C)c(C)nc(N)c2C#N)ccc1O	-0.372
CCn1c(Cc2ccccc2)nnc1SCC(=O)Nc1ccccc1N1CCOCC1	-0.397
O=C(c1ccc(O)cc1)c1ccc(C(=O)O)c(C(=O)O)c1	0.13

SMILES	z-score
CCC(=O)Nc1ccc(Cl)c(NC(=S)NC(=O)COc2ccc(Cl)cc2)c1	0.622
CN(C(=O)c1cccc(C#N)c1)c1nnc(-c2ccncc2)s1	-0.95
Cc1ccc(CSCCNS(=O)(=O)c2ccccc2)cc1	-0.0516
Cc1nnc(SCC(=O)NNC(=O)C(C)C)[nH]c1=O	-0.0447
CC(C)c1nc(-c2ccccn2)no1	0.249
CC(C)OC(=O)CSc1nnc(-c2ccc(Cl)cc2)n1N	0.659
O=C(CN(Cc1ccc(F)cc1)C(=O)c1ccco1)NCc1ccc(F)cc1	-1.36
CC(=O)Nc1ccccc1OCC(=O)NCCc1ccc(Cl)cc1Cl	-0.153
Cn1cnnc1SCc1ccc(C(=O)O)cc1	0.795
O=C(O)CC(Cc1ccccc1)c1ccc2c(c1)OCO2 (stereo not given)	0.249
COc1ccc(-c2oc3ncnc(NCCN4CCOCC4)c3c2-c2ccc(OC)cc2)cc1	-0.338
COC(=O)C1=C(C)NC2=C(C(=O)CCC2)C1c1cn(Cc2ccc(Cl)cc2Cl)nc1-c1ccccc1 (stereo not given)	-0.35
CC1CCCCC1NC(=O)C1CCN(S(=O)(=O)c2ccc3c(c2)CCC(=O)N3)CC1 (stereo not given)	0.0122
CC(=O)Nc1sc(C)c(C)c1C(=O)OCC(=O)Nc1cc(S(=O)(=O)N2CCCCC2)ccc1Cl	0.0182
N#Cc1ccc(-c2ccc(OCC(O)Cn3nnc4ccccc43)cc2)cc1 (stereo not given)	-0.106
CCOC(=O)C1=C(N)Oc2c(oc(CO)cc2=O)C1c1ccc(F)cc1 (stereo not given)	-0.156
CC(C)c1ccc(-c2nnn(CCC(=O)O)n2)cc1	-0.245
COC(=O)C1=C(NC(=O)CCCCl)CCS1	-0.0894
CN(c1ccccc1)c1ccc(/C=C(\CCC(=O)O)c2nc3ccccc3s2)cc1[N+](=O)[O-]	0.629
COc1ccc(CCNS(=O)(=O)c2cccc(F)c2)cc1OC	-0.129
CC(=O)c1sc(NC(=O)C2COc3ccccc3O2)nc1C (stereo not given)	0.441
Cc1onc(-c2ccccc2)c1C(=O)Nc1nc(-c2ccc(F)c(F)c2)cs1	-0.108

SMILES	z-score
O=C(O)CCCCNS(=O)(=O)c1ccc(Cl)c(C(F)(F)F)c1	-0.602
CCCC(=O)Oc1ccc2c(C)cc(=O)oc2c1	-0.598
O=C(O)CCN1C(=O)CC(N2C(=O)/C(=C/c3ccc(Cl)cc3)SC2=S)C1=O (stereo not given)	-0.273
COC(=O)c1ccc(NC(=O)NC2CCCCC2)cc1	-0.281
Cc1cccc(N2C(=O)CS/C2=N\NC(=O)c2ccc(Br)cc2)c1C	1.16
FC(F)(F)c1cnc(Nc2ccc(N3CCOCC3)cc2)c(Cl)c1	0.0606
COc1ccccc1Nc1nc(N)nc(CN2CCN(c3ccccc3F)CC2)n1	-0.07
Cc1nnn(-c2nonc2N)c1C(=O)N/N=C/c1ccccc1O	-0.0475
CCn1c(SCC(=O)c2ccc(OC)cc2)nnc1C1CC1	0.468
CC(C)=CCCC(C)N(C=O)C(C)CCC=C(C)C (stereo not given)	-0.778
Cn1c(=O)c2ccccc2n(Cc2ccccc2F)c1=O	0.406
COc1ccc2c(C(=O)CN(C)C3CCCCC3)c[nH]c2c1	1.52
COc1c(OC(C)=O)ccc(/C=C/c2ccc3cccc(OC)c3n2)c1[N+](=O)[O-]	-0.154
CCOc1ccccc1C(=O)Nc1nnc(COC)s1	-0.051
CC(C)CC(C)NNC(=O)c1cc2ccccc2[nH]1 (stereo not given)	0.121
Cc1ccc(C(=O)O/N=C/c2c(Cl)n(C)c3ccccc23)cc1	-0.0365
COc1ccc(/C=N/NC(=O)Cn2cnc3ccccc3c2=O)cc1	0.00606
O=C(CN1C(=O)C2C3C=CC(C3)C2C1=O)NCCc1ccccc1 (stereo not given)	-0.0512
Cc1cccc(NC(=S)N/N=C/c2ccc([N+](=O)[O-])s2)c1	1.29
CCC(CC)c1nnc(NC(=O)CCCN2C(=O)c3ccccc3C2=O)s1	-0.686
COc1ccc(N(C(=O)Cn2nnc3ccccc32)C2(C(=O)NC3CCCC3)CCCCC2)cc1	-0.442
COc1cc2c(C)nc3onc(-c4ccccc4)c3c2cc1OC	-0.241

SMILES	z-score
COCCN(CCOC)C(=O)c1cc2sc3ccccc3c2s1	-1.09
COn1c(SCC(=O)N(C)C)nc2ccccc2c1=O	0.112
COc1ccccc1S(=O)Cc1ccc(C(=O)NC2CCCC2)o1 (stereo not given)	-0.167
CCOC(=O)CSc1cc(=O)n(CC)c2ccccc12	-0.628
CCN(CC)c1nc2c(s1)C(=O)CC(C)(C)C2	-0.108
CCNc1nc(SC(C)C(=O)Nc2ccccc2)nc(N2CCOCC2)n1 (stereo not given)	-0.307
COc1cccc(-c2nc(NC(C)(C)C)c3ccccc3n2)c1O	0.524
COc1cccc(CN(CC2CCCO2)S(=O)(=O)c2ccc(S(=O)(=O)NCC3CCCO3)cc2)c1OC (stereo not given)	0.132
O=C(CCCc1c[nH]c2ccccc12)NCc1ccc2c(c1)OCO2	-0.0876
Cc1ccc(OCc2nc(C#N)c(NCc3ccc4c(c3)OCO4)o2)cc1	-0.283
S=C(NCc1ccc(Cl)c(Cl)c1)Nc1ccc2c(c1)OCO2	0.244
Cc1ccc2oc3c(c(=O)c2c1)C(c1ccc(F)cc1)N(CCCN1CCOCC1)C3=O (stereo not given)	-0.538
CC1Cc2ccccc2N1C(=O)CSc1nc2c(c(=O)n(C)c(=O)n2C)n1Cc1ccc(F)cc1 (stereo not given)	-0.211
COCc1[nH]nc2c1C1(C(=O)Nc3ccc(F)cc31)C(C#N)=C(N)O2 (stereo not given)	-0.0587
CSc1nc2ccc(Nc3nc(N4CCOCC4)nc(N4CCOCC4)n3)cc2s1	-0.466
Cc1ccc(NC(=S)N/N=C2\CC(C)(C)Oc3ccc(O)cc32)cc1	1.09
COc1cc(-c2nc(S(=O)(=O)c3ccc(Cl)cc3)c(N3CCOCC3)o2)cc(OC)c1OC	-0.427
Cc1c(C(C)NC(=O)Nc2ccc(F)cc2F)cnn1C (stereo not given)	0.581
CCCc1ccccc1OCCNC(C)=O	-0.472
O=C(NCCc1c[nH]c2ccccc12)C(F)(F)C(F)F	-0.408
CC(=O)NC12CC3CC(CC(CC(=O)O)(C3)C1)C2	0.634
CN(C)C(=O)c1cc2cc([N+](=O)[O-])ccc2s1	0.0854

SMILES	z-score
CC(NC(=O)C(C)N1C(=O)C2C3CC(C(Br)C3Br)C2C1=O)c1ccccc1 (stereo not given)	-0.169
CC1CCN(S(=O)(=O)c2cccc(C(=O)Oc3ccc([N+](=O)[O-])cc3)c2)CC1	-0.832
CC(O)c1cccc(NC(=O)CCC(=O)O)c1 (stereo not given)	0.158
O=C(Cc1ccc2c(c1)OCCO2)c1c(O)cc(O)cc1O	-0.142
COc1cc(OC)cc(C(=O)N[C@H](C(=O)Nc2nc3c(s2)CCCC3)C(C)C)c1	-0.146
CCOC(=O)c1cn2c3c(c(F)c(F)cc3c1=O)SC(N1CCOCC1)=N2	-1.05
CCOc1ccccc1OCCN1CCC(Cc2ccccc2)CC1	-0.00951
CCc1ccc(NC(=O)CSc2nnc(COc3ccc4c(c3)CCCC4)o2)cc1	0.00781
CCCCC(=O)NC(=S)Nc1ccccc1C(=O)Nc1ccccc1	-0.166
Cn1cc(C(=O)c2ccc(Cl)cc2Cl)cc1C(=O)N/N=C(\N)COc1ccc(F)cc1	-0.962
CCOC(=O)N/N=C/c1ccc(F)cc1F	-0.344
CCOC(=O)NC1(C(F)(F)F)NC(=O)N(c2cccc(C(F)(F)F)c2)C1=O (stereo not given)	0.237
Cc1cc(C)c2nc(-c3ccccn3)cc(C(=O)NCc3ccco3)c2c1	-0.369
CCOC(=O)c1nn(-c2ccc(F)cc2)c(C)c1C(C)=O	1.41
Cc1ccc(-c2nc(CSCC(=O)N3CCN(c4ccccn4)CC3)c(C)o2)cc1	-0.534
Nn1c(SCC(=O)Nc2ccccc2F)nnc1-c1cccnc1	0.367
COCCOCC(O)CN1CCN(c2ccc(C)cc2)CC1 (stereo not given)	-0.226
CCC1CCCCN1C(=O)c1cccc(S(=O)(=O)Nc2cc(C(F)(F)F)ccc2Cl)c1 (stereo not given)	-0.233
Cc1cc2nc(C3CCN(CC4COc5ccccc5O4)CC3)[nH]c2cc1C (stereo not given)	0.138
O=C1CC(N2CCN(Cc3ccccc3)CC2)C(=O)N1c1ccc2c(c1)OCCO2 (stereo not given)	-0.057
O=C(NCc1ccco1)c1cc(-c2ccncc2)nc2ccccc12	-0.497
COc1ccc(/C=C2\CCc3ccccc3C2=O)cc1Cn1nc(C)cc1C	-0.763

Source: PubChem BioAssay AID488969 (Vanderbilt High Throughput Screening Facility, 2010)
